From patent US20230235090A1 (HARBOUR BIOMED US, published 2023)

How the values were obtained:
human 4-1BB [1] = biological target: T1, human 4-1BB (human, UniProt Q07011 24-255); assay: FACS, CHO-K1/h4-1BB cells [E]
T1 construct: whole, on cells; also called CD137; TNFRSF9

cynomolgus monkey 4-1BB = biological target: T2, cynomolgus monkey 4-1BB (cynomolgus monkey); assay: FACS, CHO-K1/cyno 4-1BB cells [C]
T2 construct: whole, on cells; also called CHO-K1-cyno 4-1BB; CHO-K1/cyno4-1BB

human 4-1BB [2] = biological target: T1, human 4-1BB; assay: FACS, CHO-K1/h4-1BB cells [H]
human 4-1BB [3] = biological target: T1, human 4-1BB; assay: FACS, CHO-K1/h4-1BB cells [J]
human 4-1BB [4] = biological target: T1, human 4-1BB; assay: FACS, CHO-K1/h4-1BB cells [K]
Human CD 16b = biological target: T3, Human CD 16b (human, UniProt O75015 17-200, limits assumed); assay: BLI, antibody captured on FAB2G sensor, receptor as analyte
T3 construct: bought protein

Cynomolgus monkey CD 16 = biological target: T4, Cynomolgus monkey CD 16 (cynomolgus monkey, UniProt Q8SPW2 17-208); assay: as above
T4 construct: bought protein

T1 sequence (Q07011 24-255): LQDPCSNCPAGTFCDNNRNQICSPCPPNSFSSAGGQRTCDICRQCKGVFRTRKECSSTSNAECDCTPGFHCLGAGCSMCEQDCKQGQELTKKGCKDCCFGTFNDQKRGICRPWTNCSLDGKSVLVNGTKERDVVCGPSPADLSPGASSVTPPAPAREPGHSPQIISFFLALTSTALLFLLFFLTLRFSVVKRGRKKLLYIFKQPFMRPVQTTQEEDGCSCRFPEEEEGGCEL
Human CD 16b, sequence (O75015 17-200 limits assumed): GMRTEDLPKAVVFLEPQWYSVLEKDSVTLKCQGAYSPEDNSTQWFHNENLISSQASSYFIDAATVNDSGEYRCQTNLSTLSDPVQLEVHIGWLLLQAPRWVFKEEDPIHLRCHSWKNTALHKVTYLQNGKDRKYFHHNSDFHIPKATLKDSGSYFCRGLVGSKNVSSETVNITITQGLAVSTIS
Cynomolgus monkey CD 16, sequence (Q8SPW2 17-208 limits assumed): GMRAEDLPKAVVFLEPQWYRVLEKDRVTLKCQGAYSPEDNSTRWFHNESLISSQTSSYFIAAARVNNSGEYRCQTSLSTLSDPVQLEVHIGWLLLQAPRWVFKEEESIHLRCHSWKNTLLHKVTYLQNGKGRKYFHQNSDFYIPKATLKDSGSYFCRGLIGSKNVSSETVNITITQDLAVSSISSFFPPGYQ

B1: PR003488 (bispecific antibody, human IgG1, kappa)
light: EIVMTQSPATLSVSPGERATLSCRASQSISSNLGWYQQKPGQAPRLLIYGASTRATGIPARFSGSGSGTEFTLTISSLQSEDFAVYYCQQYQSWPPLTFGGGTKVEIKRTVAAPSVFIFPPSDEQLKSGTASVVCLLNNFYPREAKVQWKVDNALQSGNSQESVTEQDSKDSTYSLSSTLTLSKADYEKHKVYACEVTHQGLSSPVTKSFNRGEC
heavy: QVQLVESGGGVVQPGRSLRLSCAASGFTFRSFGMHWVRQAPGKGLEWVAVISYDASNEYYADSVKGRFIISRDNSKDTLYLQMNSLRAGDTAVYYCAKGGGLRWYFAYWGQGTLVTVSSASTKGPSVFPLAPSSKSTSGGTAALGCLVKDYFPEPVTVSWNSGALTSGVHTFPAVLQSSGLYSLSSVVTVPSSSLGTQTYICNVNHKPSNTKVDKKV[letters of human IgG1 Fc with changes not shown]EPKSSDKTHTPPPPPRTEVQLVESGGGVVQPGGSLRLSCAASGFTFSNYAMTWVRQAPEKGLEWVSSISGSGVSTYYADSVKGRFTISRDNSKNTLYLQMTRLTAEDTAVYFCAKEGSSETDDHYYNVDVWGQGTTVTVSSGGGGSEVQLVESGGGVVQPGGSLRLSCAASGFTFSNYAMTWVRQAPEKGLEWVSSISGSGVSTYYADSVKGRFTISRDNSKNTLYLQMTRLTAEDTAVYFCAKEGSSETDDHYYNVDVWGQGTTVTVSS
notes: IgG-VH-VH hexavalent symmetric; PR002408 IgG x PR001760 VH; second linker GS_5; IgG1 (L234A, L235A)
Question: For B1, which EC50 (human 4-1BB [1]) is on record?
Answer: 0.773 nM

Question: What about the “Maximum MFI” value (human 4-1BB [1]) of the same binder?
Answer: 98200 MFI

Question: And the EC50 (cynomolgus monkey 4-1BB)?
Answer: 0.382 nM

Question: What about the “Maximum MFI” value (cynomolgus monkey 4-1BB) of the same binder?
Answer: 13600 MFI

B2: PR003489 (bispecific antibody, human IgG1, kappa)
light: B1 light
heavy: QVQLVESGGGVVQPGRSLRLSCAASGFTFRSFGMHWVRQAPGKGLEWVAVISYDASNEYYADSVKGRFIISRDNSKDTLYLQMNSLRAGDTAVYYCAKGGGLRWYFAYWGQGTLVTVSSASTKGPSVFPLAPSSKSTSGGTAALGCLVKDYFPEPVTVSWNSGALTSGVHTFPAVLQSSGLYSLSSVVTVPSSSLGTQTYICNVNHKPSNTKVDKKV[letters of human IgG1 Fc with changes not shown]EPKSSDKTHTPPPPPRTEVQLVESGGGVVQPGGSLRLSCAASGFTFSNYAMTWVRQAPEKGLEWVSSISGSGVSTYYADSVKGRFTISRDNSKNTLYLQMTRLTAEDTAVYFCAKEGSSETDDHYYNVDVWGQGTTVTVSSGGGGSGGGGSGGGGSEVQLVESGGGVVQPGGSLRLSCAASGFTFSNYAMTWVRQAPEKGLEWVSSISGSGVSTYYADSVKGRFTISRDNSKNTLYLQMTRLTAEDTAVYFCAKEGSSETDDHYYNVDVWGQGTTVTVSS
notes: IgG-VH-VH hexavalent symmetric; PR002408 IgG x PR001760 VH; second linker GS_15; IgG1 (L234A, L235A)
Question: B2 was tested. Which EC50 (human 4-1BB [1]) did it give?
Answer: 0.895 nM

Question: What about the “Maximum MFI” value (human 4-1BB [1]) of the same binder?
Answer: 101000 MFI

Question: What about the EC50 (cynomolgus monkey 4-1BB) of the same binder?
Answer: 0.576 nM

Question: What about the “Maximum MFI” value (cynomolgus monkey 4-1BB) of the same binder?
Answer: 15200 MFI

B3: PR004279 (bispecific antibody)
chain 1: QVQLVESGGGVVQPGRSLRLSCAASGFTFRSFGMHWVRQAPGKGLEWVAVISYDASNEYYADSVKGRFIISRDNSKDTLYLQMNSLRAGDTAVYYCAKGGGLRWYFAYWGQGTLVTVSSASTKGPSVFPLAPSSKSTSGGTAALGCLVKDYFPEPVTVSWNSGALTSGVHTFPAVLQSSGLYSLSSVVTVPSSSLGTQTYICNVNHKPSNTKVDKKVEPKSC
chain 2: EIVMTQSPATLSVSPGERATLSCRASQSISSNLGWYQQKPGQAPRLLIYGASTRATGIPARFSGSGSGTEFTLTISSLQSEDFAVYYCQQYQSWPPLTFGGGTKVEIKRTVAAPSVFIFPPSDEQLKSGTASVVCLLNNFYPREAKVQWKVDNALQSGNSQESVTEQDSKDSTYSLSSTLTLSKADYEKHKVYACEVTHQGLSSPVTKSFNRGECEPKSSDKTHTPPPPPEVQLVESGGGVVQPGGSLRLSCAASGFTFSNYAMTWVRQAPEKGLEWVSSISGSGVSTYYADSVKGRFTISRDNSKNTLYLQMTRLTAEDTAVYFCAKEGSSETDDHYYNVDVWGQGTTVTVSS[letters of human IgG1 Fc with changes not shown]
notes: PR002408 Fab x PR001760 VH; IgG1 (L234A, L235A)
Question: B3 was tested. Which EC50 (human 4-1BB [2]) did it give?
Answer: 0.503 nM

B4: PR005649 (bispecific antibody)
polypeptide chain 1: B3 chain 1
polypeptide chain 2: EIVMTQSPATLSVSPGERATLSCRASQSISSNLGWYQQKPGQAPRLLIYGASTRATGIPARFSGSGSGTEFTLTISSLQSEDFAVYYCQQYQSWPPLTFGGGTKVEIKRTVAAPSVFIFPPSDEQLKSGTASVVCLLNNFYPREAKVQWKVDNALQSGNSQESVTEQDSKDSTYSLSSTLTLSKADYEKHKVYACEVTHQGLSSPVTKSFNRGECEPKSSDKTHTPPPPPEVQLVESGGGVVQPGGSLRLSCAASGFTFSNYAMTWVRQAPEKGLEWVSSISGSGVSTYYADSVKGRFTISRDNSKNTLYLQMTRLTAEDTAVYFCAKEGSSETDDHYYNVDVWGQGTTVTVSSERKCCVECPPCPAPEAAGGPSVFLFPPKPKDTLMISRTPEVTCVVVDVSHEDPEVKFNWYVDGVEVHNAKTKPREEQYNSTYRVVSVLTVLHQDWLNGKEYKCKVSNKALPAPIEKTISKAKGQPREPQVYTLPPSREEMTKNQVSLTCLVKGFYPSDIAVEWESNGQPENNYKTTPPVLDSDGSFFLYSKLTVDKSRWQQGNVFSCSVMHEALHNHYTQKSLSLSPGK
notes: Fab-HCAb: PR002408 Fab + PR001760 VH, human IgG1 (L234A, L235A)
Question: How did the EC50 (human 4-1BB [3]) turn out when B4 was run?
Answer: 0.533 nM

B5: PR005650 (bispecific antibody)
polypeptide chain 1: B3 chain 1
polypeptide chain 2: EIVMTQSPATLSVSPGERATLSCRASQSISSNLGWYQQKPGQAPRLLIYGASTRATGIPARFSGSGSGTEFTLTISSLQSEDFAVYYCQQYQSWPPLTFGGGTKVEIKRTVAAPSVFIFPPSDEQLKSGTASVVCLLNNFYPREAKVQWKVDNALQSGNSQESVTEQDSKDSTYSLSSTLTLSKADYEKHKVYACEVTHQGLSSPVTKSFNRGECEVQLVESGGGVVQPGGSLRLSCAASGFTFSNYAMTWVRQAPEKGLEWVSSISGSGVSTYYADSVKGRFTISRDNSKNTLYLQMTRLTAEDTAVYFCAKEGSSETDDHYYNVDVWGQGTTVTVSS[letters of human IgG1 Fc with changes not shown]EVQLVESGGGVVQPGGSLRLSCAASGFTFSNYAMTWVRQAPEKGLEWVSSISGSGVSTYYADSVKGRFTISRDNSKNTLYLQMTRLTAEDTAVYFCAKEGSSETDDHYYNVDVWGQGTTVTVSS
notes: Fab-VH-Fc-VH: PR002408 + PR001760 VH, human IgG1 (L234A, L235A)
Question: Which EC50 (human 4-1BB [3]) does the source give for B5 here?
Answer: 0.531 nM

B6: PR007165 (bispecific antibody, human IgG1)
polypeptide chain 1: B1 light
polypeptide chain 2: QVQLVESGGGVVQPGRSLRLSCAASGFTFRSFGMHWVRQAPGKGLEWVAVISYDASNEYYADSVKGRFIISRDNSKDTLYLQMNSLRAGDTAVYYCAKGGGLRWYFAYWGQGTLVTVSSASTKGPSVFPLAPSSKSTSGGTAALGCLVKDYFPEPVTVSWNSGALTSGVHTFPAVLQSSGLYSLSSVVTVPSSSLGTQTYICNVNHKPSNTKVDKKVEPKSCEVQLVESGGGVVQPGGSLRLSCAASGFTFSNYAMTWVRQAPEKGLEWVSSISGSGVSTYYADSVKGRFTISRDNSKNTLYLQMTRLTAEDTAVYFCAKEGSSETDDHYYNVDVWGQGTTVTVSS[letters of human IgG1 Fc with changes not shown]
notes: Fab-HCAb (structure E): PR002408 Fab + PR001760 VH, human IgG1 (L234A, L235A)
Question: With B6 as the binder, how does the EC50 (human 4-1BB [4]) read?
Answer: 4 nM

Question: What about the “Maximum MFI” value (human 4-1BB [4]) of the same binder?
Answer: 71200 MFI

B7: PR005189 (bispecific antibody)
polypeptide chain 1: B3 chain 1
polypeptide chain 2: EIVMTQSPATLSVSPGERATLSCRASQSISSNLGWYQQKPGQAPRLLIYGASTRATGIPARFSGSGSGTEFTLTISSLQSEDFAVYYCQQYQSWPPLTFGGGTKVEIKRTVAAPSVFIFPPSDEQLKSGTASVVCLLNNFYPREAKVQWKVDNALQSGNSQESVTEQDSKDSTYSLSSTLTLSKADYEKHKVYACEVTHQGLSSPVTKSFNRGECEVQLVESGGGVVQPGGSLRLSCAASGFTFSNYAMTWVRQAPEKGLEWVSSISGSGVSTYYADSVKGRFTISRDNSKNTLYLQMTRLTAEDTAVYFCAKEGSSETDDHYYNVDVWGQGTTVTVSS[letters of human IgG1 Fc with changes not shown]
notes: as for B4
Question: Which EC50 (human 4-1BB [4]) does the source give for B7 here?
Answer: 4.25 nM

Question: And the “Maximum MFI” value (human 4-1BB [4])?
Answer: 92400 MFI

B8: PR004158 (bispecific antibody, human IgG1, kappa)
light: EIVMTQSPASLSVSPGERATLSCRASQSVSSNLAWYQQKPGQAPRLLIYGASTRATGIPARVSGGGSGTEFTLTISSLQSEDFAVYYCQQYKNWPFTFGPGTKLEIKRTVAAPSVFIFPPSDEQLKSGTASVVCLLNNFYPREAKVQWKVDNALQSGNSQESVTEQDSKDSTYSLSSTLTLSKADYEKHKVYACEVTHQGLSSPVTKSFNRGEC
heavy: QVQLVQSGAEVKKPGSSMRVSCKASEDTFSSYAISWVRQAPGQGLEWMGGTAPIFGTTNYAQKFQGRVTITADKSTSTAYMELSSLRSEDTAVYYCARGGPYFDYWGQGTLVTVSSASTKGPSVFPLAPSSKSTSGGTAALGCLVKDYFPEPVTVSWNSGALTSGVHTFPAVLQSSGLYSLSSVVTVPSSSLGTQTYICNVNHKPSNTKVDKKV[letters of human IgG1 Fc with changes not shown]EPKSSDKTHTPPPPPRTEVQLVESGGGVVQPGGSLRLSCAASGFTFSNYAMTWVRQAPEKGLEWVSSISGSGVSTYYADSVKGRFTISRDNSKNTLYLQMTRLTAEDTAVYFCAKEGSSETDDHYYNVDVWGQGTTVTVSSGGGGSEVQLVESGGGVVQPGGSLRLSCAASGFTFSNYAMTWVRQAPEKGLEWVSSISGSGVSTYYADSVKGRFTISRDNSKNTLYLQMTRLTAEDTAVYFCAKEGSSETDDHYYNVDVWGQGTTVTVSS
notes: IgG-VH-VH hexavalent symmetric; PR002410 IgG x PR001760 VH; IgG1 (L234A, L235A)
Question: What does the source list for B8?
Answer: EC50 (cynomolgus monkey 4-1BB): 0.248 nM; Maximum MFI (cynomolgus monkey 4-1BB): 14500 MFI

B9: PR002408 (antibody, human IgG1, kappa)
heavy: QVQLVESGGGVVQPGRSLRLSCAASGFTFRSFGMHWVRQAPGKGLEWVAVISYDASNEYYADSVKGRFIISRDNSKDTLYLQMNSLRAGDTAVYYCAKGGGLRWYFAYWGQGTLVTVSS[letters of human IgG1 constant region not shown]
light: B1 light
notes: anti-B7-H4 H2L2 recombinant fully human antibody, human IgG1 / kappa; also called PR001476 variant
Question: How did the Kd (Human CD 16b) turn out when B9 was run?
Answer: 3800 nM

Question: And the Kd (Cynomolgus monkey CD 16)?
Answer: 129 nM
